Assay results as given in the supplement of paper PMC8728848.
Some of the results follow.

Assays:
Assay in all cases: glycan array binding signal (z-score within array); higher = stronger binding
Conditions in all cases: glycan notation: IUPAC condensed, linker removed
GalNAc3S(b1-4)GlcNAc3S = molecular target: GalNAc3S(b1-4)GlcNAc3S
In short: (§1)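 Glycan array binding is given as a within-array Z-score, which can be read as non-binding when negative. The arrays, 3228 of them, came from the Consortium for Functional Glycomics database and were retained only where the protein sequence was available. Z-scores were averaged across arrays of the same protein sequence at different concentrations or buffers and across linkers.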

[1] = molecular target: GalNAc3S(b1-4)[Fuc(a1-3)]GlcNAc
In short: as §1

GalNAc4S6S(b1-4)GlcNAc = molecular target: GalNAc4S6S(b1-4)GlcNAc
In short: as §1

GalNAc6S(b1-4)GlcNAc = molecular target: GalNAc6S(b1-4)GlcNAc
In short: as §1

Glc(a1-4)Glc = molecular target: Glc(a1-4)Glc
In short: as §1

[2] = molecular target: Glc(a1-4)Glc(a1-4)Glc(a1-4)Glc
In short: as §1

Glc(a1-6)Glc(a1-6)Glc = molecular target: Glc(a1-6)Glc(a1-6)Glc
In short: as §1

[3] = molecular target: Glc(a1-6)Glc(a1-6)Glc(a1-6)Glc
In short: as §1

Glc(b1-4)Glc = molecular target: Glc(b1-4)Glc
In short: as §1

Glc(b1-6)Glc = molecular target: Glc(b1-6)Glc
In short: as §1

GlcA(b1-3)Gal = molecular target: GlcA(b1-3)Gal
In short: as §1

GlcA(b1-3)GlcNAc = molecular target: GlcA(b1-3)GlcNAc
In short: as §1

GlcA(b1-6)Gal = molecular target: GlcA(b1-6)Gal
In short: as §1

[4] = molecular target: GlcA3S(b1-3)Gal(b1-4)GlcNAc(b1-2)Man
In short: as §1

[5] = molecular target: GlcA3S(b1-3)Gal(b1-4)GlcNAc(b1-3)Gal(b1-4)Glc
In short: as §1

[6] = molecular target: GlcNAc(a1-3)Gal(b1-4)GlcNAc
In short: as §1

[7] = molecular target: GlcNAc(a1-4)Gal(b1-3)GlcNAc
In short: as §1

[8] = molecular target: GlcNAc(a1-4)Gal(b1-4)GalNAc
In short: as §1

[9] = molecular target: GlcNAc(a1-4)Gal(b1-4)GlcNAc
In short: as §1

[10] = molecular target: GlcNAc(a1-4)Gal(b1-4)GlcNAc(b1-3)Gal(b1-4)Glc
In short: as §1

[11] = molecular target: GlcNAc(a1-4)Gal(b1-4)GlcNAc(b1-3)Gal(b1-4)GlcNAc
In short: as §1

[12] = molecular target: GlcNAc(a1-4)Gal(b1-4)GlcNAc(b1-3)Gal(b1-4)GlcNAc(b1-3)Gal(b1-4)GlcNAc
In short: as §1

[13] = molecular target: GlcNAc(a1-4)Gal(b1-4)GlcNAc(b1-3)Gal(b1-4)[Fuc(a1-3)]GlcNAc(b1-3)Gal(b1-4)[Fuc(a1-3)]GlcNAc
In short: as §1

[14] = molecular target: GlcNAc(a1-6)Gal(b1-4)GlcNAc
In short: as §1

[15] = molecular target: GlcNAc(b1-2)Gal(b1-3)GalNAc
In short: as §1

[16] = molecular target: GlcNAc(b1-2)Man(a1-3)[GlcNAc(b1-2)Man(a1-6)]Man(b1-4)GlcNAc(b1-4)GlcNAc
In short: as §1

[17] = molecular target: GlcNAc(b1-2)Man(a1-3)[GlcNAc(b1-2)Man(a1-6)]Man(b1-4)GlcNAc(b1-4)[Fuc(a1-6)]GlcNAc
In short: as §1

[18] = molecular target: GlcNAc(b1-2)Man(a1-3)[GlcNAc(b1-4)][GlcNAc(b1-2)Man(a1-6)]Man(b1-4)GlcNAc(b1-4)GlcNAc
In short: as §1

[19] = molecular target: GlcNAc(b1-2)Man(a1-3)[GlcNAc(b1-4)][GlcNAc(b1-2)Man(a1-6)]Man(b1-4)GlcNAc(b1-4)[Fuc(a1-6)]GlcNAc
In short: as §1

[20] = molecular target: GlcNAc(b1-2)[GlcNAc(b1-4)]Man(a1-3)[GlcNAc(b1-2)Man(a1-6)]Man(b1-4)GlcNAc(b1-4)GlcNAc
In short: as §1

[21] = molecular target: GlcNAc(b1-2)[GlcNAc(b1-4)]Man(a1-3)[GlcNAc(b1-4)][GlcNAc(b1-2)Man(a1-6)]Man(b1-4)GlcNAc(b1-4)GlcNAc
In short: as §1

[22] = molecular target: GlcNAc(b1-2)[GlcNAc(b1-4)]Man(a1-3)[GlcNAc(b1-4)][GlcNAc(b1-2)[GlcNAc(b1-6)]Man(a1-6)]Man(b1-4)GlcNAc(b1-4)GlcNAc
In short: as §1

[23] = molecular target: GlcNAc(b1-2)[GlcNAc(b1-4)]Man(a1-3)[GlcNAc(b1-4)][GlcNAc(b1-2)[GlcNAc(b1-6)]Man(a1-6)]Man(b1-4)GlcNAc(b1-4)[Fuc(a1-6)]GlcNAc
In short: as §1

[24] = molecular target: GlcNAc(b1-2)[GlcNAc(b1-6)]Man(a1-6)[GlcNAc(b1-2)Man(a1-3)]Man(b1-4)GlcNAc(b1-4)GlcNAc
In short: as §1

[25] = molecular target: GlcNAc(b1-2)[GlcNAc(b1-6)]Man(a1-6)[GlcNAc(b1-2)Man(a1-3)]Man(b1-4)GlcNAc(b1-4)[Fuc(a1-6)]GlcNAc
In short: as §1

[26] = molecular target: GlcNAc(b1-2)[GlcNAc(b1-6)]Man(a1-6)[GlcNAc(b1-4)][GlcNAc(b1-2)Man(a1-3)]Man(b1-4)GlcNAc(b1-4)GlcNAc
In short: as §1

GlcNAc(b1-3)Fuc = molecular target: GlcNAc(b1-3)Fuc
In short: as §1

GlcNAc(b1-3)Gal = molecular target: GlcNAc(b1-3)Gal
In short: as §1

B1: Epa1to9 (Candida glabrata) (protein)
chain: MGSSHHHHHHSSGLVPRGSHMTSSNDISLASKDPTTFPLGCSPDITTPKKGLSMELYSYDFRKKGSYPCWDAAYLDPNYPRTGYKSHRLLAKVDGVTGNINFYYHATKGCTPQLGHLPASYNYPKPLTMTNFTMLLYGYFRPKVTGFHTFTISADDLLFVNFGAGNAFDCCRRDSSADHFGNYQAYAIWGSKTAKDELTVHLDAGVYYPIRLFYNNRDYHGALSFTFKTESNENTVSDFSEYFFSLDDTEEGCPGLISYD
glycan array binding signal (z-score) (GalNAc3S(b1-4)GlcNAc3S): -0.353
glycan array binding signal (z-score) [1]: -0.357
glycan array binding signal (z-score) (GalNAc4S6S(b1-4)GlcNAc): -0.346
glycan array binding signal (z-score) (GalNAc6S(b1-4)GlcNAc): -0.354
glycan array binding signal (z-score) (Glc(a1-4)Glc): -0.36
glycan array binding signal (z-score) [2]: -0.34
glycan array binding signal (z-score) (Glc(a1-6)Glc(a1-6)Glc): -0.355
glycan array binding signal (z-score) [3]: -0.347
glycan array binding signal (z-score) (Glc(b1-4)Glc): -0.362
glycan array binding signal (z-score) (Glc(b1-6)Glc): -0.333
glycan array binding signal (z-score) (GlcA(b1-3)Gal): -0.315
glycan array binding signal (z-score) (GlcA(b1-3)GlcNAc): -0.346
glycan array binding signal (z-score) (GlcA(b1-6)Gal): 0.861
glycan array binding signal (z-score) [4]: -0.337
glycan array binding signal (z-score) [5]: -0.35
glycan array binding signal (z-score) [6]: -0.355
glycan array binding signal (z-score) [7]: -0.4
glycan array binding signal (z-score) [8]: -0.387
glycan array binding signal (z-score) [9]: -0.312
glycan array binding signal (z-score) [10]: -0.501
glycan array binding signal (z-score) [11]: -0.361
glycan array binding signal (z-score) [12]: -0.347
glycan array binding signal (z-score) [13]: -0.308
glycan array binding signal (z-score) [14]: 1.09
glycan array binding signal (z-score) [15]: -0.313
glycan array binding signal (z-score) [16]: -0.366
glycan array binding signal (z-score) [17]: -0.348
glycan array binding signal (z-score) [18]: -0.347
glycan array binding signal (z-score) [19]: -0.354
glycan array binding signal (z-score) [20]: -0.295
glycan array binding signal (z-score) [21]: -0.347
glycan array binding signal (z-score) [22]: -0.358
glycan array binding signal (z-score) [23]: -0.351
glycan array binding signal (z-score) [24]: -0.344
glycan array binding signal (z-score) [25]: -0.342
glycan array binding signal (z-score) [26]: -0.352
glycan array binding signal (z-score) (GlcNAc(b1-3)Fuc): -0.343
glycan array binding signal (z-score) (GlcNAc(b1-3)Gal): -0.358
